In the RNAGym collection of RNA variant scans (doi:10.7554/elife.90254):
Read counts are not given, so values of variants with three or more changes are uncertain.

B1: LINE1-full (parent)
chain: UACGUAGGUGGUUUUCCCCUGAUAGUGCUAAGGGGGCCUGGAAGUUUGGACUGGGCAGAGCUCAACACAGCGUGGCAAAGUGGCUGUGGCUAGACUGCCUCUCUGGAUUCCUCGUCACUCAGCAGGGCAUCUCUGAGAGAAAUGCC

Variants of: B1
Assay: self-cleavage, relative activity (ratio to wild type); higher = more cleavage; in vitro, sequencing; the parent is a self-cleaving ribozyme

Variant	self-cleavage
U15C G89A G126A	0.05
U15C G105A A107U	2.44
U15C G114A A140G	1.33
U15C U20A A30G	1.45
U15C U20A A59G U102A	0.18
U15C U20A A121U	1.6
U15C U20A A140G	0.69
U15C U20A G40A U96A	0
U15C U20A U46C A92U G106A A140G	0.78
U15C U20A U52A U85A U119C A136G	0.15
U15C U20C A77G U112C	2.53
U15C U20C A141G	1.55
U15C U20C G55U A141G	0.2
U15C U20C G58U U87C	0.09
U15C U20C U112C	1
U15C U20G A92U U104C U109A	1.64
U15C U20G U52C U119A U132C	1.45
U15C U23A U26A C37U G54U U91C	0.15
U15C U23C A43G U102A G122A U130C	1.92
U15C U23C A107G U119C	0.34
U15C U26C A43G U81A	1.05
U15C U26C U45C A65U C99A	0.11
U15C U26C U47C G58U	0.03
U15C U26C U130C A142G	1.07

Variant	self-cleavage
U15C U26G U39C	0.32
U15C U29A A94G A138G	0
U15C U29A A136U A138G	1.35
U15C U29C A30C A50C G106U G126A U134A	1.16
U15C U29C A77G	1.77
U15C U29C A78U U134A	1.69
U15C U29C A136C	0.47
U15C U29C U100C	1.53
U15C U39A A79C U81C G105A	1.56
U15C U39A A142G	1.11
U15C U39A C120U U132C	2.33
U15C U39A U100C	0.24
U15C U39C A50G U52A	2.16
U15C U39C A67G	0.31
U15C U39C C98G U115C	0.12
U15C U39C U85C	0
U15C U45A A129U	1.24
U15C U45C A59G G70U A117G U130C	0
U15C U45C A67U A129G	0.3
U15C U45C G54A	0.33
U15C U45C G55C	0.07
U15C U46A U134C	1.24
U15C U46C A79G U91A C145A	1.2
U15C U46C A136G	1.84

Variant	self-cleavage
U15C U46C G72A C98U A136G	0.83
U15C U46C U134A	1.12
U15C U46G U104C U143A	1.67
U15C U47A A69U	0.1
U15C U47A G54A C76U	0.79
U15C U47A G126A	1.77
U15C U47C A50U U112A	0.7
U15C U47G C99U	0.92
U15C U52A A65G A92U C111U	0.03
U15C U52A U62A U100C A142G	0.05
U15C U52A U62C U81A	0.09
U15C U52C A67U G75A	0.18
U15C U52C U112C A124G	0.88
U15C U62A A92U	0.13
U15C U62A C71U A141G	0.07
U15C U62C A79U A94G	0
U15C U62C A136G A142G	0
U15C U62C U73A	0.14
U15C U73A A79G A138G	2.57
U15C U73A U104C U132C	2.77
U15C U73C U100A	1.76
U15C U73G U109C A129G	0.42
U15C U81C A117U A121G	2.37
U15C U85A A121G	0

Variant	self-cleavage
U15C U85A A121U	0.27
U15C U85A U96C	0.17
U15C U85A U100C	0
U15C U85A U112C	0
U15C U85C A136G	0.57
U15C U85C U104C	1.15
U15C U85C U109A	0.24
U15C U85C U134A A141U	0.11
U15C U87C A138U	0.1
U15C U87C G93U A107G	0.17
U15C U87C U119C G125A A142G	0.5
U15C U96A A107U	0.12
U15C U100A A141G	1.07
U15C U102A G126A A138G	1.6
U15C U102C U109C	1.2
U15C U102C U143C	0.59
U15C U104C U109C	1.62
U15C U109C U115C	1.08
U15C U115A A121G A124U	1.96
U15C U119A U134C	0.76
U15C U119C A124G	2.02
U15C U130C U134A	1.91
U15C U130C U143A	2.51
U15C U132A A140G	2.72

Variant	self-cleavage
U15G A69G A117C	0
U15G A78G U96C A124G	0
U15G U26C A57U A67G	0
U15G U26C A124U	1.26
U15G U46C A117G	0
U15G U52A C131A	0.65
U15G U73C G86U	0.18
U15G U87C U108C U134C	0.77
C16A A43C U102C	0
C16A U39C A50G	1.23
C16A U100C A129G	1.46
C16G U62C U87C	0.1
C16U A24G U134A	0.63
C16U A24U G36A U46C U62C U73A U134A	0.02
C16U A31G A50G G93A U100A	0
C16U A43U G125C	1.02
C16U A50G A136G	0.32
C16U A50G G53A A92G	0.06
C16U A77U G89A U108C A142G	0.05
C16U A117U A124G	1.33
C16U A121G G135A	0.69
C16U G35C U119A	0.36
C16U G36C U115C A124U A138G	1.41
C16U U20A A77C A121G U130A	2.55

Variant	self-cleavage
C16U U23A G126A	1.25
C16U U23A U108C	1.53
C16U U23C C113G U115A	1.49
C16U U26C U102A A121C A136G	1.84
C16U U26C U134C	0
C16U U46C U62C A77U A94C	0
C16U U52C A77G A107G	2.3
C16U U62A U102C U104A	0.04
C16U U87C U119C	0.22
C16U U96C U112C	0.07
C16U U102A A136G	0.8
C17A G70A C123G	0.1
C17A U29C U85A U100A	0.14
C17A U96C G114A	0.08
C17G A31U U39C G60A U62C	0.27
C17U A22U U26C A67G A78U	0.53
C17U A24C A140G	0
C17U A31U C51U	0.88
C17U A43G G49A	0.36
C17U A64G A117G G122C	0
C17U A64U A94G	0.14
C17U A69C U87C A124U A142U	0.21
C17U A107U A138U	1.6
C17U A129G U132C U134C	2.16

Variant	self-cleavage
C17U C56U G75A A79G U104C	0
C17U G35A A124G A140G	0.2
C17U G35A C133A	1.05
C17U G36A U47C	1.05
C17U G36A U73A A121G	1.51
C17U G36U A43U A107G	0.71
C17U G55A U96A	0.06
C17U U20C A92G	0
C17U U39C U81G	0.77
C17U U45A U134A	1.03
C17U U46A U132C	0.92
C17U U73G C90A C103A	0.08
C17U U81C U104C	1.84
C17U U102C U130C	2.51
C17U U104C A141G	1.57
C18A A31C A129G A140G A141G	0.57
C18A A31G U62C A138G	0.1
C18A A50G U109C	0
C18A G48A A65U A142G	0.14
C18A G54U A77G A92U C111U	0.24
C18A U20C U39A U47A U87C U96A U112C	0.22
C18A U39C A57G	0.3
C18A U47A U87A U119A	0.1
